± gives the standard deviation of the averaged measurements. The list shows a part of the results.

The test system of this experiment is PfAP2-LT AP2 domain (GST-tagged). The experiment can be described thus: gcPBM binding intensity (ln(normalized median fluorescence intensity)); higher = stronger DNA binding. A digest of the protocol: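 Binding of GST-tagged P. falciparum DNA-binding domains, expressed in E. coli and used at about 25 μg on average, was carried out for 1 h in 1× PBS containing 1% milk, 0.2 mg/ml BSA, 0.5% salmon testes DNA and 0.03% Triton X-100. The target was an Agilent 4 × 180k array of primer-extended double-stranded 36-bp intergenic genomic probes plus negative controls, read with Alexa488 anti-GST antibody at 488 nm. Binding intensity is the highest Masliner-normalised natural-log median intensity across replicate spots of either probe orientation.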
Turning to “TTTATTGAACGTACACATATATATATGTATATATTT [TGCATGCA_negctrl_site141]”, the “gcPBM binding intensity (ln)” value turned out to be 8.97 ± 0.38.
As to “CAAAAGGATATGCACACACACACACGGATATTTATA [CACACA_site7099]”, the “gcPBM binding intensity (ln)” value was found to be 10 ± 0.28.
With TTTTGTTATTAGAGGGTGCTTATAATGAACTCCTAC, the “gcPBM binding intensity (ln)” value was 8.65 ± 0.49.
In the case of ATTACATTAATAAGAGTGCATTATATAAGTTTTATG it was 8.52 ± 0.45; in that of AAAAAAAAAAATCCAGTGCATATATTTTTTACATAT, 8.64 ± 0.45; in that of “TCAATCATCTTATATAGTACACATAAAAGTATTATA [XGTACX_site8513]”, 8.48 ± 0.33.
With “GACAAAATGATAGGGACACACAATATCAATGTTTAA [CACACA_site765]”, the “gcPBM binding intensity (ln)” value was 9.05 ± 0.55.
With “CCACTAATAAATATTACACACATATAGATTTATATT [CACACA_site7465]”, the “gcPBM binding intensity (ln)” value came to 9.01 ± 0.31.
Turning to “AAAAAAAAAAATTACACACATACATATAATAATAAT [CACACA_site2193]”, the “gcPBM binding intensity (ln)” value amounted to 9.06 ± 0.4.
“CGTATATATATATACACACACATATATATATGTAAA [CACACA_site195]”: the “gcPBM binding intensity (ln)” value was determined as 9.3 ± 0.3.
Consider “TATTTCCATTCATAATTTTGTAGAATATATAACCGT [CACACA_negctrl_site1531]”, for which the “gcPBM binding intensity (ln)” value is 8.55 ± 0.49.
Turning to “AAAAACTTAATATTCACACATATATATATATATATA [CACACA_site5240]”, the “gcPBM binding intensity (ln)” value was determined as 9.71 ± 0.15.
For the sequence “TACGTTCTAATATATACACACCTGGTATTAATTATG [CACACA_site5260]”, the “gcPBM binding intensity (ln)” value was 9.04 ± 0.42.
Regarding “AAATATTATTTATTTACACACCAATCTTCTTTTCTT [CACACA_site3990]”, the “gcPBM binding intensity (ln)” value was determined as 8.95 ± 0.5.
In the case of “GAAAAATTTTTATATGTGCACATGTTATATATAATT [GTGCAC_site9742]”, the “gcPBM binding intensity (ln)” value is 8.9 ± 0.3.
Regarding “TTTTATTATTAATTTCTTTTTTCTCATCACTTTCAA [XGTACX_negctrl_site117]”, the “gcPBM binding intensity (ln)” value amounted to 8.51 ± 0.65.
“TTTACAAAAAATTATACACACACGTACATATAAATA [CACACA_site945]”: the “gcPBM binding intensity (ln)” value was determined as 9.12 ± 0.33.
Turning to “ATATATATAAAATATACACACATACTGTTCATTTAA [CACACA_site6149]”, the “gcPBM binding intensity (ln)” value came to 8.98 ± 0.4.
As for “TAATTTATGAGTAATACACACACTTGTGGATATATT [CACACA_site3790]”, the figure is 8.98 ± 0.37; as for “AAATAAAAAAAGAAACGTACATATATTGGTTTCGTC [XGTACX_site3510]”, 8.79 ± 0.4.
Turning to “TAATGTAAAATTTAGAGTACATAAAAAATTGGATGA [XGTACX_site7225]”, the “gcPBM binding intensity (ln)” value was found to be 8.69 ± 0.4.
Take “AAACTATAATATATTACACACATATATTTTATAAGT [CACACA_site6460]”: the “gcPBM binding intensity (ln)” value worked out at 9.02 ± 0.3.
As for “AATTGAATTTTAAAAGAAAAAAAAAAAAAAAAATAA [XGTACX_negctrl_site195]”, the figure is 8.12 ± 0.57.
“GGAATAGTAATATATACACACAAATACAGATATATA [CACACA_site4213]”: the “gcPBM binding intensity (ln)” value was 9.3 ± 0.45.
Take “TGGAGGTCAGTTCACAGTACCCAGAAACTCTACGGA [XGTACX_site4927]”: the “gcPBM binding intensity (ln)” value amounted to 8.57 ± 0.35.
As for “CATACAGATATATATACACACATACAGATAAATACA [CACACA_site4592]”, the figure is 9.3 ± 0.28; as for “AAAAAAATAAGTATTGAACAATTAAGGAAAAACATG [GTGCAC_negctrl_site464]”, 8.77 ± 0.47; as for “CTTATAAAAAAAAAAACATGCAACAGTAAAGAACAA [TGCATGCA_site892]”, 8.88 ± 0.41.
Regarding “AACATACATAAACACACACACACACCCACAGAGACA [CACACA_site4430]”, the “gcPBM binding intensity (ln)” value stood at 10.29 ± 0.035.
In the case of “GGTAATTTTTTTTAAATACACACTGAAATGTGAATT [CACACA_site564]”, the “gcPBM binding intensity (ln)” value worked out at 8.56 ± 0.49.
With “CTTGTCATTGGGCACACACACATGTATAGGTTATTA [CACACA_site3058]”, the “gcPBM binding intensity (ln)” value amounted to 9.36 ± 0.3.
In the case of “TGAACACCCACAAATACACACAAAAAAAATAAATAA [CACACA_site248]” it was 9.28 ± 0.51; in that of “ATTTTTTTTCATATAACACACACACTAATATAATGT [CACACA_site9226]”, 9.45 ± 0.43; in that of “GAGTAAACATATATATGTACATAAAGTTAACATTGC [XGTACX_site2225]”, 9.11 ± 0.41.
In the case of “ATATATTATATAATATGTACATAATAAAATTTAAAT [XGTACX_site1900]”, the “gcPBM binding intensity (ln)” value is 8.85 ± 0.42.
Turning to “TTTTTATTTATATATATATATATATATTATATATAA [CACACA_negctrl_site1654]”, the “gcPBM binding intensity (ln)” value turned out to be 8.77 ± 0.31.
For the sequence “ATCTAAATAATATATATATATAATATTAATAATATA [CACACA_negctrl_site1620]”, the “gcPBM binding intensity (ln)” value was determined as 8.44 ± 0.49.
On to “ACAAGATCTAGATACACACACATATCTCTCAATCTA [CACACA_site6453]”, for which the “gcPBM binding intensity (ln)” value is 9.36 ± 0.36.
Turning to “GTAAAAAAATAGCACACACACAAAAACACGCACAAA [CACACA_site6723]”, the “gcPBM binding intensity (ln)” value amounted to 10.1 ± 0.23.
As to “GGGACAGGACGAAAAAATAAATAAATAAATAAAAAA [CACACA_negctrl_site155]”, the “gcPBM binding intensity (ln)” value was found to be 8.65 ± 0.71.
In the case of “AATAATTGAAAAACACAAAAATGATTTTCCATAAAT [CACACA_negctrl_site1555]”, the “gcPBM binding intensity (ln)” value was found to be 8.46 ± 0.54.
For “AATAAATAAATATATACACACATATCTGTCTACATA [CACACA_site5708]”, the “gcPBM binding intensity (ln)” value was 9.01 ± 0.37.
As for “TTAAGATATGTATATCGTACATGACATTAAAAATTT [XGTACX_site3352]”, the “gcPBM binding intensity (ln)” value was 8.52 ± 0.41.
Take “AATGGTATAATCAATACACACATAATATATATATTG [CACACA_site1658]”: the “gcPBM binding intensity (ln)” value amounted to 8.95 ± 0.39.
